Data on 7 molecules can be found in patent US20240101686A1 (SIMCERE ZAIMING PHARMACEUTICAL, published 2024).

Assay [1] addresses T1, murine EGFR protein (murine, UniProt Q01279 25-647).
T1 construct: Bought protein

In assay [2] the target is T1, murine EGFR protein. The source holds these as a separate data set.
The target of assay [3] is T1, murine EGFR protein. The source holds these as a separate data set.
The target in assay [4] is T1, murine EGFR protein. This is another data set of the same source.
Assay [5] concerns the target T2, human EGFRvIII-His tag protein (extracellular domain Leu25-Ser378) (human, UniProt P00533 in part).
T2 construct: Made in HEK293E cells, purified on nickel column; also called human EGFRvIII protein; EGFRvIII protein; not shown: His tag

In assay [6] the target is T1, murine EGFR protein. This is another data set of the same source.
Assay [7] addresses T2, human EGFRvIII-His tag protein …. This is another data set of the same source.
The target in assay [8] is T1, murine EGFR protein. This is another data set of the same source.
In assay [9] the target is T2, human EGFRvIII-His tag protein …. This is another data set of the same source.
The target is the same in assay [10]. This is another data set of the same source.
Assay [11] concerns the target T1, murine EGFR protein. The source holds these as a separate data set.
Assay [12] has as its target T2, human EGFRvIII-His tag protein …. The source holds these as a separate data set.
Assay [13] has the same target. The source holds these as a separate data set.
The target is the same in assay [14]. The source holds these as a separate data set.
Assay [15] addresses T1, murine EGFR protein. The source holds these as a separate data set.
Assay [16] deals with T2, human EGFRvIII-His tag protein …. The source holds these as a separate data set.

Read-outs that look alike come from different tables or passages of the source.

B1: S008-NB148-8 VHH-Fc antibody (Fc fusion)
chain: EVQLVESGGGLVQAGGSLRLSCVVSGSTFSSYAMGWYRQAPGKQRELVAAISSGVSANVADSLKGRFAISRDNAKNAVYLQMNSLKPEDTAVYYCNTLPRSMPYWGKGTLVTVSS[human IgG1 Fc with changes not shown]
Consider B1, for which the OD450 in the assay with murine EGFR protein [1] was found to be 2.73; with murine EGFR protein [2] it was 2.85; in the assay with murine EGFR protein [3], 2.43; with murine EGFR protein [4] it was 2.93; in [5], 2.22; in the assay with murine EGFR protein [6], 1. The OD450 in assay [7] is 2.4; with murine EGFR protein [8], 0.19; in assay [9], 1.86; in [10], 2.5; with murine EGFR protein [11] it was 0.07; in assay [12], 0.69. The OD450 in [13] was 0.15; in [14] it was 0.07; in the assay with murine EGFR protein [15], 0.07; in assay [16], 0.07.

B2: S008-NB148-30 VHH-Fc antibody (Fc fusion)
chain: EVQLVESGGGLVRAGGSLRLSCAASGTISSYDVVGWYRQAPGKQRELVALIGTDRWLNLGDFAKGRFTMSTDDAANTVDLEMNSLKPEDTAVYYCYTFQHTVGPRWGQGTQVTVSS[human IgG1 Fc with changes not shown]
As to B2, the OD450 with murine EGFR protein [1] amounted to 1.36; with murine EGFR protein [2], 2.46; with murine EGFR protein [3] it was 0.27; with murine EGFR protein [4], 2.39; in [5] it was 2.38; with murine EGFR protein [6], 0.08. Moreover, the OD450 in assay [7] worked out at 2.64; with murine EGFR protein [8] it was 0.06; in [9], 1.98; in assay [10], 2.78; with murine EGFR protein [11], 0.05; in [12] it was 0.71. In addition, the OD450 in [13] was determined as 0.24; in [14], 0.15; with murine EGFR protein [15] it was 0.06; in [16], 0.08.

B3: S008-NB148-77 VHH-Fc antibody (Fc fusion)
chain: EVQVVESGGGLVQAGGSLRLSCVASGFDFSDSVMGWYRQAPGKQREAVAIISSVGQSNYRDSVQGRFTVSRSNTENTMYLQMDSLKPEDTAIYYCKKFGPGEYWGQGTQVTVSS[human IgG1 Fc with changes not shown]
Take B3: the OD450 with murine EGFR protein [1] came out at 2.16; with murine EGFR protein [2] it was 2.21; with murine EGFR protein [3] it was 1.77; with murine EGFR protein [4], 2.17; in assay [5] it was 2.01; in the assay with murine EGFR protein [6] it was 0.52. Also, the OD450 in [7] was found to be 2.06; with murine EGFR protein [8], 0.1; in [9] it was 1.82; in assay [10], 2.32; with murine EGFR protein [11], 0.05; in assay [12], 0.62. For the same molecule, the OD450 in [13] worked out at 0.13; in assay [14], 0.05; with murine EGFR protein [15], 0.05; in [16] it was 0.04.

B4: S008-NB148-25 VHH-Fc antibody (Fc fusion)
chain: EVQLVESGGGLVQPGGSLRLSCAVSQSISSINAMDWYRQAPGKQRELVAIIFNNGRTNYADSVKGRFTISRDNARNTVYLQMNSLKPEDTAVYYCNIVPPLRNWGQGTQVTVSS[human IgG1 Fc with changes not shown]
Turning to B4, the OD450 with murine EGFR protein [1] came to 0.05; with murine EGFR protein [2], 0.06; with murine EGFR protein [3], 0.05; in the assay with murine EGFR protein [4], 0.08; in assay [5], 2.37; in the assay with murine EGFR protein [6], 0.05. Besides, the OD450 in [7] turned out to be 2.41; with murine EGFR protein [8] it was 0.05; in assay [9], 2.06; in assay [10], 2.71; in the assay with murine EGFR protein [11], 0.05; in assay [12] it was 0.77. Besides, the OD450 in assay [13] turned out to be 0.17; in assay [14], 0.07; with murine EGFR protein [15], 0.05; in assay [16], 0.08.

B5: S008-NB148-2 VHH-Fc antibody (Fc fusion)
chain: EVQVVESGGGLVQAGGSLRLSCAASGSTFSSYAMTWYRQAPGKQRELVAAISSGGSTNYAASVKGRFTISRDNAKNTLYLQMNTLKPEDTAVYYCNTDWGNGFSAEYDYWGQGTQVTVSS[human IgG1 Fc with changes not shown]
As to B5, the OD450 came out at 2.38 with murine EGFR protein [1]; 2.71 with murine EGFR protein [2]; 1.34 with murine EGFR protein [3]; 2.72 with murine EGFR protein [4]; 2 in assay [5]; 0.22 in the assay with murine EGFR protein [6]. In addition, the OD450 in [7] amounted to 2.41; in the assay with murine EGFR protein [8] it was 0.07; in assay [9] it was 1.21; in [10], 2.41; with murine EGFR protein [11] it was 0.05; in assay [12] it was 0.25. Further, the OD450 in assay [13] came out at 0.08; in assay [14], 0.06; in the assay with murine EGFR protein [15], 0.05; in [16], 0.06.

B6: S008-NB148-48 VHH-Fc antibody (Fc fusion)
chain: QLQLVESGGGLVQAGGSLKLSCVASGFTFSNYAMAWYRQAPGKQRELIASCSASCIWTNYGASVKGRFTMSLDNAKKTVYLQMDSLKPEDTAVYYCRNLDANYWGQGTQVTVSS[human IgG1 Fc with changes not shown]
On to B6, for which the OD450 in the assay with murine EGFR protein [1] stood at 2.77; with murine EGFR protein [2], 2.79; with murine EGFR protein [3] it was 2.46; in the assay with murine EGFR protein [4], 2.99; in assay [5], 2.59; with murine EGFR protein [6], 0.92. In addition, the OD450 was 2.54 in [7]; 0.2 with murine EGFR protein [8]; 2.06 in [9]; 2.57 in [10]; 0.09 with murine EGFR protein [11]; 0.75 in assay [12]. The OD450 in assay [13] was 0.18; in assay [14], 0.09; with murine EGFR protein [15] it was 0.07; in [16], 0.07.

B7: S008-NB148-5 VHH-Fc antibody (Fc fusion)
chain: QLQLVESGGGLVQAGGSLRLSCAVSISTFTTNGWDWYRQAPGKQRELVALISNDGTTTYTDSVKGRFTISRDGAKNTVYLQMNNLKPEDTAVYYCNTIPPAGSWGQGTQVTVSS[human IgG1 Fc with changes not shown]
Turning to B7, the OD450 with murine EGFR protein [1] turned out to be 0.05; with murine EGFR protein [2], 0.05; with murine EGFR protein [3], 0.05; with murine EGFR protein [4] it was 0.07; in assay [5] it was 2.08; with murine EGFR protein [6] it was 0.05. The OD450 is 2.47 in [7]; 0.05 with murine EGFR protein [8]; 1.92 in assay [9]; 2.52 in assay [10]; 0.05 with murine EGFR protein [11]; 0.75 in assay [12]. In addition, the OD450 in assay [13] was 0.16; in assay [14], 0.07; in the assay with murine EGFR protein [15], 0.08; in assay [16] it was 0.07.
